Key:
[1] = molecular target: T1, human CLDN18.2 (human); assay: flow cytometry (FACS) on hCLDN18.2-KATOIII cells
T1 construct: Full-length human CLDN18.2 overexpressed on HEK293, NUGC4 and KATOIII cells; also called hCLDN18.2

[2] = molecular target: T1, human CLDN18.2; assay: flow cytometry (FACS) on hCLDN18.2-NUGC4 cells
Experimental: (§1) hCLDN18.2-NUGC4 cells in the exponential growth phase were collected, centrifuged at 300 g to remove the supernatant; the cells were resuspended in FACS buffer (PBS containing 1% BSA) and counted and the cell suspension density was adjusted to 2×10⁶ cells/mL. Subsequently, hCLDN18.2-NUGC4 cells were added into a 96-well round-bottom plate at 100 μL per well, and centrifuged at 300 g to remove the supernatant. Different concentrations of heavy-chain antibody NA3SH1-T4, heavy-chain antibody NA3SH1-T4-hVH6, heavy-chain antibody NA3SH1 as a control, and human IgG1 isoform antibody as an isoform control were added to the corresponding wells. The cells were resuspended and placed at 4° C. for incubation for 1 h. The incubated cell mixture was washed 3 times, PE-labeled anti-human-IgG-Fc flow cytometry antibody (Abcam, catalog number: 98596) was add, resuspended and placed at 4° C. for incubation for 30 minutes. The incubated cell mixture was washed 3 times, 200 μL of FACS buffer was added to resuspend the cells, and finally detected and analyzed by a flow cytometer (Beckman, CytoFLEX AOO-1-1102). Data were analyzed using PRISM™ (GraphPad Software, San Diego, CA), and EC₅₀ values were calculated.

[3] = molecular target: T1, human CLDN18.2; assay: flow cytometry (FACS) on hCLDN18.2-HEK293 cells
Experimental: as §1, with “hCLDN18.2-HEK293” for “hCLDN18.2-NUGC4”

T1 sequence (chain, as listed by the source limits assumed): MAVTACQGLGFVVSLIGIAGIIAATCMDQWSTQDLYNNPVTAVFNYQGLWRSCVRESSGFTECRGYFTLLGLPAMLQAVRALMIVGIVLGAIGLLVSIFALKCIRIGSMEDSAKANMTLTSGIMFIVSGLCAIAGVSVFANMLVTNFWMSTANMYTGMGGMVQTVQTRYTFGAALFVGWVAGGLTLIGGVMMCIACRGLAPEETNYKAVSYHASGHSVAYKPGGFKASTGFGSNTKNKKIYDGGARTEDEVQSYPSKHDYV

Row | EC50 [1] [µg/mL] | EC50 [2] [µg/mL] | EC50 [3] [µg/mL] | Binder
1 | 0.33 | 0.405 | 0.274 | anti-CLDN18.2 heavy-chain antibody NA3SH1-T4 (Fc fusion, no light chain) heavy: QVQLVESGGGLVQPGGSLRLSCAASGSIFHIPVMGWYRQAPGKQRELVAGISRGGTTNYGDSVKGRFTISRDNAKNTVYLQMNSLKPEDTAVYYCNVLVVSGIGSTLEVWGQGTLVTVSS[sequence of human IgG1 Fc omitted]
2 | 0.618 | 2.15 | 0.536 | anti-CLDN18.2 heavy-chain antibody NA3SH1 (Fc fusion, no light chain; also called control heavy-chain antibody NA3SH1; heavy-chain antibody NA3SH1 as a control) heavy: QVQLVESGGGLVQPGGSLRLSCAASGSIFNIPVMGWYRQAPGKQRELVAGISTGGTTNYGDSVKGRFTISRDNAKNTVYLQMNSLKPEDTAVYYCNVLVVSGIGSTLEVWGQGTLVTVSS[sequence of human IgG1 Fc omitted]
3 | 0.398 | 0.847 | 0.31 | anti-CLDN18.2 heavy-chain antibody NA3SH1-T4-hVH6 (Fc fusion, no light chain) heavy: QVQLVESGGGLVQPGGSLRLSCAASGSIFHIPVMGWYRQAPGKGLELVAGISRGGTTNYADSVKGRFTISRDNAKNTLYLQMNSLRAEDTAVYYCNVLVVSGIGSTLEVWGQGTLVTVSS[sequence of human IgG1 Fc omitted]

Source: patent US20240247060A1 (SANYOU BIOPHARMACEUTICALS, published 2024)
